{"source": "paper PMC4242493", "note": "Some of the results follow. The list includes weakly bound sequences."}
{"target": "MaxL homodimer (UniProt P61244)", "sequence (P61244 whole entry)": "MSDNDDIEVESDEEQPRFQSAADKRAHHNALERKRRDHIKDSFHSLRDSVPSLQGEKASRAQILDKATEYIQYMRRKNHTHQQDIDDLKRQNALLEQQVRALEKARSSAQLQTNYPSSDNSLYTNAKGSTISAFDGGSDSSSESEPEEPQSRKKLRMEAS", "assay": "universal protein-binding microarray (PBM)", "conditions": "PBS-based mixture, 10 nM His-tagged protein dimer, 2% milk, 200 ng/uL BSA, 50 ng/uL salmon testes DNA, 0.02% TX-100; detection with Alexa 488 anti-His …; high values mean tight binding; most listed sequences are background and not binding sites; double strand, one strand shown"}
{"sequence": "AGATGCCT", "binding signal (normalized occupancy)": 0.0739}
{"sequence": "CCTAACCG", "binding signal (normalized occupancy)": 0.0736}
{"sequence": "AACGTGTC", "binding signal (normalized occupancy)": 0.101}
{"sequence": "GCAACAAC", "binding signal (normalized occupancy)": 0.0714}
{"sequence": "CATAGCTA", "binding signal (normalized occupancy)": 0.076}
{"sequence": "GACGGAGC", "binding signal (normalized occupancy)": 0.0654}
{"sequence": "GGCATCAA", "binding signal (normalized occupancy)": 0.0737}
{"sequence": "ATAAGGAG", "binding signal (normalized occupancy)": 0.0759}
{"sequence": "ACCCTGCA", "binding signal (normalized occupancy)": 0.0751}
{"sequence": "CTGTCTCA", "binding signal (normalized occupancy)": 0.0747}
{"sequence": "CTTTGAAC", "binding signal (normalized occupancy)": 0.0689}
{"sequence": "GCCTGAAA", "binding signal (normalized occupancy)": 0.0701}
{"sequence": "AATGCAGG", "binding signal (normalized occupancy)": 0.08}
{"sequence": "CCTTGTTA", "binding signal (normalized occupancy)": 0.0737}
{"sequence": "ATGAGGAC", "binding signal (normalized occupancy)": 0.0862}
{"sequence": "GAATGCAA", "binding signal (normalized occupancy)": 0.0742}
{"sequence": "AATGGACC", "binding signal (normalized occupancy)": 0.073}
{"sequence": "ACTCATCT", "binding signal (normalized occupancy)": 0.078}
{"sequence": "AAAGCCAA", "binding signal (normalized occupancy)": 0.0666}
{"sequence": "AAATCTTA", "binding signal (normalized occupancy)": 0.075}
{"sequence": "AAAGTCGC", "binding signal (normalized occupancy)": 0.065}
{"sequence": "CCTGCGCA", "binding signal (normalized occupancy)": 0.0738}
{"sequence": "AAACTGGC", "binding signal (normalized occupancy)": 0.071}
{"sequence": "ATGACAAA", "binding signal (normalized occupancy)": 0.0782}
{"sequence": "ATTGTCAA", "binding signal (normalized occupancy)": 0.0786}
{"sequence": "CGCCCATC", "binding signal (normalized occupancy)": 0.0733}
{"sequence": "CACTGGGC", "binding signal (normalized occupancy)": 0.0746}
{"sequence": "AAGTAGGT", "binding signal (normalized occupancy)": 0.0741}
{"sequence": "ACCATTGG", "binding signal (normalized occupancy)": 0.07}
{"sequence": "AGCCCACC", "binding signal (normalized occupancy)": 0.0778}
{"sequence": "AGAACAAG", "binding signal (normalized occupancy)": 0.0731}
{"sequence": "ACCGAGCC", "binding signal (normalized occupancy)": 0.0667}
{"sequence": "CCCAACCA", "binding signal (normalized occupancy)": 0.0747}
{"sequence": "GGGCACTA", "binding signal (normalized occupancy)": 0.075}
{"sequence": "AGCTTCAG", "binding signal (normalized occupancy)": 0.0661}
{"sequence": "CCCGCAGC", "binding signal (normalized occupancy)": 0.0632}
{"sequence": "GATAGTAC", "binding signal (normalized occupancy)": 0.073}
{"sequence": "ATCGGGCG", "binding signal (normalized occupancy)": 0.0738}
{"sequence": "GAGAATGC", "binding signal (normalized occupancy)": 0.0826}
{"sequence": "ATTGTTTG", "binding signal (normalized occupancy)": 0.073}
{"sequence": "GAATCCGC", "binding signal (normalized occupancy)": 0.0724}
{"sequence": "GCGAGTCA", "binding signal (normalized occupancy)": 0.0725}
{"sequence": "ATTGTCTG", "binding signal (normalized occupancy)": 0.0774}
{"sequence": "CCGTCAAG", "binding signal (normalized occupancy)": 0.0709}
{"sequence": "GTCCGCCA", "binding signal (normalized occupancy)": 0.0738}
{"sequence": "AGGCTCGA", "binding signal (normalized occupancy)": 0.0701}
{"sequence": "TAGGGCAA", "binding signal (normalized occupancy)": 0.069}
{"sequence": "AAAAATTG", "binding signal (normalized occupancy)": 0.0784}
{"sequence": "TACACAAA", "binding signal (normalized occupancy)": 0.0756}
{"sequence": "CCTCGTTC", "binding signal (normalized occupancy)": 0.0806}
{"sequence": "ACGATCTG", "binding signal (normalized occupancy)": 0.0791}
{"sequence": "CGAGTCCA", "binding signal (normalized occupancy)": 0.0775}
{"sequence": "GTCTAAAA", "binding signal (normalized occupancy)": 0.0747}
{"sequence": "ACATAGGG", "binding signal (normalized occupancy)": 0.0814}
{"sequence": "CCATGCAA", "binding signal (normalized occupancy)": 0.0895}
{"sequence": "GCCATACA", "binding signal (normalized occupancy)": 0.0813}
{"sequence": "GAAGACGA", "binding signal (normalized occupancy)": 0.0709}
{"sequence": "CACTGCAG", "binding signal (normalized occupancy)": 0.0735}
{"sequence": "AATTACCC", "binding signal (normalized occupancy)": 0.0792}
{"sequence": "TGTAATAA", "binding signal (normalized occupancy)": 0.0791}
{"sequence": "AGGGACTA", "binding signal (normalized occupancy)": 0.0805}
{"sequence": "CAGAAGGG", "binding signal (normalized occupancy)": 0.0737}
{"sequence": "AAAATGCA", "binding signal (normalized occupancy)": 0.0766}
{"sequence": "AAGGGACA", "binding signal (normalized occupancy)": 0.0766}
{"sequence": "AAGGTCAC", "binding signal (normalized occupancy)": 0.0771}
{"sequence": "GTCCATTA", "binding signal (normalized occupancy)": 0.0766}
{"sequence": "ACGCGAGA", "binding signal (normalized occupancy)": 0.0802}
{"sequence": "CAGAGACG", "binding signal (normalized occupancy)": 0.0739}
{"sequence": "TCTTACCA", "binding signal (normalized occupancy)": 0.0777}
{"sequence": "ATTGCAAG", "binding signal (normalized occupancy)": 0.0752}
{"sequence": "TGCAAGCA", "binding signal (normalized occupancy)": 0.0718}
{"sequence": "GGGTAAAC", "binding signal (normalized occupancy)": 0.0784}
{"sequence": "AAATTTCG", "binding signal (normalized occupancy)": 0.0663}
{"sequence": "CAGGTGAG", "binding signal (normalized occupancy)": 0.0881}
{"sequence": "AACTATAC", "binding signal (normalized occupancy)": 0.0834}
{"sequence": "ACATCATC", "binding signal (normalized occupancy)": 0.0854}
{"sequence": "ATTAGTCG", "binding signal (normalized occupancy)": 0.077}
{"sequence": "CAGTGTAG", "binding signal (normalized occupancy)": 0.0731}
{"sequence": "GCACACAC", "binding signal (normalized occupancy)": 0.0907}
{"sequence": "ACACAGAT", "binding signal (normalized occupancy)": 0.079}
{"sequence": "AGAAAGAT", "binding signal (normalized occupancy)": 0.0767}
{"sequence": "GGGAAGAA", "binding signal (normalized occupancy)": 0.0707}
{"sequence": "TAGGATGA", "binding signal (normalized occupancy)": 0.0742}
{"sequence": "CAGGCGGC", "binding signal (normalized occupancy)": 0.0721}
{"sequence": "GCTTCAGA", "binding signal (normalized occupancy)": 0.0698}
{"sequence": "ATGCCGGA", "binding signal (normalized occupancy)": 0.0718}
